Test [1] addresses T1, GST-Fkh1 (full-length fusion protein, 1–484) (S. cerevisiae) (UniProt P40466).
T1 sequence: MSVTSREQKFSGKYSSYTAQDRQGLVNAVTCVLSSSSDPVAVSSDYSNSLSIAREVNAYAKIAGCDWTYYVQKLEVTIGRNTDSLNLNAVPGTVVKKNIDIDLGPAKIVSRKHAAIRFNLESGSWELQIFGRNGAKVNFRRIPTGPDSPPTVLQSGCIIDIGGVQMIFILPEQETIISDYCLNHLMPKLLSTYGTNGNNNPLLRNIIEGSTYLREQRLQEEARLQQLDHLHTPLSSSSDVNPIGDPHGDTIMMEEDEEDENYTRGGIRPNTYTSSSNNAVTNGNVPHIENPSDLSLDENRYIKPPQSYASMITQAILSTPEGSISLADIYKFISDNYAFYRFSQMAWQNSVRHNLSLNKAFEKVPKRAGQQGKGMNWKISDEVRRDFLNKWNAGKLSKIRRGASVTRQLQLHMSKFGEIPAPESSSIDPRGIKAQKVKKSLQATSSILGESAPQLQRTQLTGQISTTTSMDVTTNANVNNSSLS
The experiment in a line: pull-down; GST fusion from E. coli immobilized on GSH sepharose, incubated with pre-cleared bacterial (E. coli) total protein extract containing the HA fusion; eluted with 10 mM free GSH; anti-HA blot; only the target purified.

Amino acid sequences for entries named in this document (tags omitted).
UniProt P16649: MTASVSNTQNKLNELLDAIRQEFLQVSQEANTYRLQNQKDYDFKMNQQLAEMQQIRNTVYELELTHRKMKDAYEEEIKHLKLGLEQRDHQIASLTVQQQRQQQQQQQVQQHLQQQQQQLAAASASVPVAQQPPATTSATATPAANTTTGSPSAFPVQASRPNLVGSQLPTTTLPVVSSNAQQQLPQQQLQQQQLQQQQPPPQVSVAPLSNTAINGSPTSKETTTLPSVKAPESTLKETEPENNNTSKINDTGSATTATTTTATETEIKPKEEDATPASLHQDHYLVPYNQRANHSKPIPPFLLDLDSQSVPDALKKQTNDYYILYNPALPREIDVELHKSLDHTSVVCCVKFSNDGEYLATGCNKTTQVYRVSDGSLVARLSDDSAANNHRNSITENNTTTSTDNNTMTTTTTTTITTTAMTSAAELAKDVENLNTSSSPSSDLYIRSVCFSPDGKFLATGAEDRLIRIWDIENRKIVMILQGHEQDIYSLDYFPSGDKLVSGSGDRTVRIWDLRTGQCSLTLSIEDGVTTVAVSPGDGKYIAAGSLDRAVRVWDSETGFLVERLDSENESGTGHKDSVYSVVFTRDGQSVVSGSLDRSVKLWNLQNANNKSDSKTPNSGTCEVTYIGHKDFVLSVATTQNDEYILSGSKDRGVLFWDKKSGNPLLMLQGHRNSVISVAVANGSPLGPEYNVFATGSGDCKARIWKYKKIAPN

The target in test [2] is T1, GST-Fkh1 (full-length fusion protein, 1–484) (S. cerevisiae). Put plainly: pull-down; GST fusion from E. coli immobilized on GSH sepharose, incubated with pre-cleared total protein extract from S. cerevisiae containing the HA fusion; eluted with 10 mM free GSH; anti-HA blot; only the target purified.
The target in test [3] is T2, GST-Fkh1_(51–125) (S. cerevisiae) (UniProt P40466).
T2 sequence: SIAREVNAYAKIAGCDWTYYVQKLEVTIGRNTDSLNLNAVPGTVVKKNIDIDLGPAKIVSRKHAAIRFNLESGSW
Described as above.

Test [4] addresses T3, GST-Fkh1 (aa 1–125) (S. cerevisiae) (UniProt P40466).
T3 sequence: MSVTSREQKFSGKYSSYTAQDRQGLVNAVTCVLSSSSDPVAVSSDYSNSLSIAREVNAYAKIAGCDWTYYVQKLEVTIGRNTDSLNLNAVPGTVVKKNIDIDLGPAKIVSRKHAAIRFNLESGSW
Described as above.

The target of test [5] is T4, GST-Fkh1 (aa 81–160) (S. cerevisiae) (UniProt P40466).
T4 sequence: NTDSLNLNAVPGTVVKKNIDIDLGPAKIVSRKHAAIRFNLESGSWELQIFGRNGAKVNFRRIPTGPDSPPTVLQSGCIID
The description is as above.

The target in test [6] is T5, GST-Fkh1 (aa 126–240) (S. cerevisiae) (UniProt P40466).
T5 sequence: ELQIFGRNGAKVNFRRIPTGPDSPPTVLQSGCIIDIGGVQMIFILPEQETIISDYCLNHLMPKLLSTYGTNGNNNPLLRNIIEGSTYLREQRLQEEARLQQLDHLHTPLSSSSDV
The description is as above.

In test [7] the target is BD-Sin3_(301–888) (S. cerevisiae) (UniProt P22579). Put plainly: two-hybrid; strain PJ69-4A; Gal4 BD-Sin3 (pGBD-C1) and Gal4 AD-Fkh1 (pGAD-C1) fusions; growth on medium lacking adenine (GAL2-ADE2 reporter) after 48 h.
For test [8], the target named is T6, BD-Sin3_(1–300) (S. cerevisiae) (UniProt P22579).
T6 sequence: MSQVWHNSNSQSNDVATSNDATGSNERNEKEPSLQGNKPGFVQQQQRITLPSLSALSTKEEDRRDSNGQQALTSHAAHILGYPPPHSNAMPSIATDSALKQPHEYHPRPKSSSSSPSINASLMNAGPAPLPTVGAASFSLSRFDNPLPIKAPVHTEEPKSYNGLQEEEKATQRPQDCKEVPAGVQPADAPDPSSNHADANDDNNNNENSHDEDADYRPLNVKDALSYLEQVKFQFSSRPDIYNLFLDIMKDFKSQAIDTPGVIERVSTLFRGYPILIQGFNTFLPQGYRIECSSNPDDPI
Described as above.

Test [9] concerns the target T1, GST-Fkh1 (full-length fusion protein, 1–484) (S. cerevisiae). The experiment in a line: pull-down; GST fusion from E. coli immobilized on GSH sepharose, incubated with pre-cleared total protein extract from S. cerevisiae containing the HA fusion; eluted with 10 mM free GSH; anti-HA blot; only the target purified. The source holds these as a separate data set.
The target of test [10] is T3, GST-Fkh1 (aa 1–125) (S. cerevisiae). Described as above. The source holds these as a separate data set.
The target of test [11] is T5, GST-Fkh1 (aa 126–240) (S. cerevisiae). The description is as above. The source holds these as a separate data set.

Positions count from the first letter of the chain named. Names and notes keep the numbering of the source. Where two headings read alike, the source gives them in different places. These are yes or no findings as the source states them, for the method shown. For some of these results: Binding seen in cells or lysates may run through a third protein. Some results given as binding are weak or reduced against the parent protein; the word gives no strength. Where a sequence is shown, tags or fusion partners need not be part of it.

On to “HA3-Tup1 (full-length) (from UniProt P16649 1-713)”, for which, in test [1], the binding entry was “binds”.

“HA3-Sin3 (full-length), expressed in E. coli (from UniProt P22579 1-1536)”: in [1], the binding entry is listed as “binds”.

“HA-tagged Sin3 (aa 301–600), comprising PAH2 (from UniProt P22579 301-600) (domain or fragment)”: the binding result in test [2], in test [3], in test [4], in [5] and in [6] was “binds” throughout.

B1: HA3-Cyc8 (aa 1–398, TPR-containing domain) (domain or fragment, UniProt P14922 1-398)
chain: MNPGGEQTIMEQPAQQQQQQQQQQQQQQQQAAVPQQPLDPLTQSTAETWLSIASLAETLGDGDRAAMAYDATLQFNPSSAKALTSLAHLYRSRDMFQRAAELYERALLVNPELSDVWATLGHCYLMLDDLQRAYNAYQQALYHLSNPNVPKLWHGIGILYDRYGSLDYAEEAFAKVLELDPHFEKANEIYFRLGIIYKHQGKWSQALECFRYILPQPPAPLQEWDIWFQLGSVLESMGEWQGAKEAYEHVLAQNQHHAKVLQQLGCLYGMSNVQFYDPQKALDYLLKSLEADPSDATTWYHLGRVHMIRTDYTAAYDAFQQAVNRDSRNPIFWCSIGVLYYQISQYRDALDAYTRAIRLNPYISEVWYDLGTLYETCNNQLSDALDAYKQAARLDVNN
In the case of B1, the binding result in test [1] is listed as “no binding”.

B2: AD-Fkh1_(126–240) (domain or fragment, UniProt P40466 126-240)
chain: T5 sequence
For the molecule B2, the binding entry in [7] and in test [8] was “binds” throughout.

B3: AD-Fkh1_(81–160) (domain or fragment, UniProt P40466 81-160)
chain: T4 sequence
Regarding B3, the binding result in test [7] is given as “binds”.

B4: HA-tagged Sin3 (aa 801–1100) (domain or fragment, UniProt P22579 801-1100)
chain: NQYEETLFKIEEERHEYDFYIESNLRTIQCLETIVNKIENMTENEKANFKLPPGLGHTSMTIYKKVIRKVYDKERGFEIIDALHEHPAVTAPVVLKRLKQKDEEWRRAQREWNKVWRELEQKVFFKSLDHLGLTFKQADKKLLTTKQLISEISSIKVDQTNKKIHWLTPKPKSQLDFDFPDKNIFYDILCLADTFITHTTAYSNPDKERLKDLLKYFISLFFSISFEKIEESLYSHKQNVSESSGSDDGSSIASRKRPYQQEMSLLDILHRSRYQKLKRSNDEDGKVPQLSEPPEEEPNT
On to B4, for which the binding entry in [9] is reported as “no binding”.

B5: HA-tagged Sin3 (aa 1101–1536) (domain or fragment, UniProt P22579 1101-1536)
chain: IEEEELIDEEAKNPWLTGNLVEEANSQGIIQNRSIFNLFANTNIYIFFRHWTTIYERLLEIKQMNERVTKEINTRSTVTFAKDLDLLSSQLSEMGLDFVGEDAYKQVLRLSRRLINGDLEHQWFEESLRQAYNNKAFKLYTIDKVTQSLVKHAHTLMTDAKTAEIMALFVKDRNASTTSAKDQIIYRLQVRSHMSNTENMFRIEFDKRTLHVSIQYIALDDLTLKEPKADEDKWKYYVTSYALPHPTEGIPHEKLKIPFLERLIEFGQDIDGTEVDEEFSPEGISVSTLKIKIQPITYQLHIENGSYDVFTRKATNKYPTIANDNTQKGMVSQKKELISKFLDCAVGLRNNLDEAQKLSMQKKWENLKDSIAKTSAGNQGIESETEKGKITKQEQSDNLDSSTASVLPASITTVPQDDNIETTGNTESSDKGAKIQ
Regarding B5, the binding entry in [9] was “no binding”.

B6: HA-tagged Sin3 (aa 601–950) (domain or fragment, UniProt P22579 601-950)
chain: TSLTEQYAPSSIQHQQQHPQSISPIANTQYGDIPVRPEIDLDPSIVPVVPEPTEPIENNISLNEEVTFFEKAKRYIGNKHLYTEFLKILNLYSQDILDLDDLVEKVDFYLGSNKELFTWFKNFVGYQEKTKCIENIVHEKHRLDLDLCEAFGPSYKRLPKSDTFMPCSGRDDMCWEVLNDEWVGHPVWASEDSGFIAHRKNQYEETLFKIEEERHEYDFYIESNLRTIQCLETIVNKIENMTENEKANFKLPPGLGHTSMTIYKKVIRKVYDKERGFEIIDALHEHPAVTAPVVLKRLKQKDEEWRRAQREWNKVWRELEQKVFFKSLDHLGLTFKQADKKLLTTKQLIS
As for B6, in [9], the binding result is listed as “no binding”.

B7: HA-tagged Sin3 (aa 1–300), comprising PAH1 (domain or fragment, UniProt P22579 1-300)
chain: T6 sequence
Regarding B7, the binding entry in test [9], in test [10] and in [11] was “binds” throughout.

B8: AD-Fkh1_(51–125) (domain or fragment, UniProt P40466 51-125)
chain: T2 sequence
For the molecule B8, in test [7], the binding entry is reported as “binds”.

B9: AD-Fkh1_(51–125 L74A) (domain or fragment, UniProt P40466 51-125)
chain: T2 sequence with L24A
As to B9, the binding entry in test [7] was “no binding”.

B10: AD-Fkh1_(51–125 I78A) (domain or fragment, UniProt P40466 51-125)
chain: T2 sequence with I28A
Turning to B10, the binding result in test [7] is given as “no binding”.

B11: AD-Fkh1_(1–125) (domain or fragment, UniProt P40466 1-125)
chain: T3 sequence
Take B11: the binding entry in [7] and in [8] was “binds” throughout.

The values above are taken from PMC8139909.
